Laboratory results taken from publication PMC4336329 (PLoS ONE, 2015).
The campaign covered roughly 310,000 compounds. About 2,200 (0.71%) showed an effect of 50% or more. Effects have a minus sign here. The list shows a part of the results.

biological target: human ether-à-go-go-related gene (hERG) potassium channel (human, UniProt Q12809); assay: primary screen, population patch clamp on CHO cells stably expressing hERG
Sequence (Q12809 whole entry, looked up): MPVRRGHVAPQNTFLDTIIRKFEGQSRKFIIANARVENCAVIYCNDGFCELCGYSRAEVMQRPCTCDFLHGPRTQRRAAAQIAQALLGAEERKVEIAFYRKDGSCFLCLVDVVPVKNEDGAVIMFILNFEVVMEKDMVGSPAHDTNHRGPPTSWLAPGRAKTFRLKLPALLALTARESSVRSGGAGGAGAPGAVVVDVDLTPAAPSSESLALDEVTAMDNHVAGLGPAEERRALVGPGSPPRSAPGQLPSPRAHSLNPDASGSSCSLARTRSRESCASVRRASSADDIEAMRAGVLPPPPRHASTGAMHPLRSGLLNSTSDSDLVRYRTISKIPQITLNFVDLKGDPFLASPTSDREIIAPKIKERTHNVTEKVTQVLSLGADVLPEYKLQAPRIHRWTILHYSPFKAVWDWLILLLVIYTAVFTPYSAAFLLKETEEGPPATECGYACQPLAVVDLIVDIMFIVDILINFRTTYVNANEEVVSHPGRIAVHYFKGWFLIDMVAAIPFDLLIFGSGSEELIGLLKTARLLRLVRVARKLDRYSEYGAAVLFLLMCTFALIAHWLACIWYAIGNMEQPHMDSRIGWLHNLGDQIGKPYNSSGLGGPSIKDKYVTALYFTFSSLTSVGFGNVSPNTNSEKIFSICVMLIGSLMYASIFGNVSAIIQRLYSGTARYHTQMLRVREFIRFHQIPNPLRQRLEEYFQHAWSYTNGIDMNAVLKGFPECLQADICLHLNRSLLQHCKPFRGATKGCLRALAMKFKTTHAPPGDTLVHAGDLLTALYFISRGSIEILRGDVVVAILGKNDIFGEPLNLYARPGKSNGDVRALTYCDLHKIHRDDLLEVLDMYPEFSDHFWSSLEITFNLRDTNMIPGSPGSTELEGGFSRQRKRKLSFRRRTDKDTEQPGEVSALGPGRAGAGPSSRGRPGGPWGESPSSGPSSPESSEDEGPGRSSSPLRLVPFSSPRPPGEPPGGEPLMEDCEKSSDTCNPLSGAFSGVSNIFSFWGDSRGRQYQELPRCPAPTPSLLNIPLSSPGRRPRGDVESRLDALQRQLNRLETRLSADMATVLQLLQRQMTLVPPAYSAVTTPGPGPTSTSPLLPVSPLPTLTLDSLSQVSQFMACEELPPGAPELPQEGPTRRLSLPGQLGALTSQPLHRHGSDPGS

| Compound | hERG current change (%, negative = inhibition) at 1uM [%] |
| --- | --- |
| CN1CCN(CCC(=O)Nc2cccc(Br)c2)CC1 | 7.14 |
| Cc1nc(NC(=O)C2CC2)sc1C(=O)Nc1cccc(Cl)c1 | 16.5 |
| Cc1cccc(C)c1NC(=S)N(CCN1CCCCCC1)Cc1ccco1 | 0.0867 |
| CC1=C(C(N)=O)C(c2cccs2)NC(=S)N1 (stereo not shown) | 16.1 |
| CC1CCC/C=C/C(=O)c2c(O)cc(O)cc2CC(=O)O1 (stereo not shown) | 6.8 |
| O=C(NCC1CCCO1)C(=O)N/N=C/c1ccc(O)c(Cl)c1 (stereo not shown) | 10.5 |
| COc1ccccc1C(=O)Nc1nc(N)n(-c2ccccc2)n1 | 17.5 |
| Cc1cccc(-n2ccc(=O)c(C(=O)Nc3ccc(S(=O)(=O)Nc4nccs4)cc3)n2)c1 | 12.2 |
| Cc1cc(-n2cnnn2)ccc1C(C)C | -3.31 |
| COc1ccc2cc(CN(CC3CCCO3)C(=O)Nc3ccccc3)c(=O)[nH]c2c1 (stereo not shown) | 7.36 |
| O=C(CCCOc1ccccc1)N1CCc2ccccc2C1 | 9.63 |
| Cc1ccc2c(CC(=O)OC(C)C(=O)Nc3ncc(Cl)cc3Cl)coc2c1 (stereo not shown) | 11.6 |
| COc1ccc(C(C)=O)cc1CC(=O)Nc1ccccc1-c1ccccc1 | 16.8 |
| O=C(CN1CCCCCC1)Nc1cccc(NC(=O)CN2CCCCCC2)c1 | 7.91 |
| O=C1C(=Cc2cccn2-c2ccc(O)cc2)C(=O)c2ccccc21 | 6.18 |
| COc1ccc(NC(=O)C2CCCN(S(=O)(=O)c3c(C)[nH]c(=O)[nH]c3=O)C2)cc1OC (stereo not shown) | 19 |
| c1ccc(-c2nc(-n3ccnc3)nc(-n3ccnc3)n2)cc1 | -32.4 |
| Cc1cc(C)n(CC(=O)NNC(=O)c2ccc(NC(=O)CC#N)cc2)n1 | 8.18 |
| Cc1cc(C)nc(N(C#N)Cc2cccc([N+](=O)[O-])c2)n1 | 1.77 |
| Cc1occc1C(=O)N=Nc1c(O)n(C)c2ccccc12 | 15.6 |
| Cl.N=c1n(Cc2ccccc2Cl)c2ccccc2n1CC(O)c1ccco1 (stereo not shown) | -11.3 |
| O=c1c2cccnc2[nH]c(=S)n1CCCN1CCN(c2ccccc2F)CC1 | 5.53 |

| Compound | hERG current change (%, negative = inhibition) at 1uM [%] |
| --- | --- |
| COc1ccc(C2c3[nH]c4ccccc4c3CCN2Cc2ccoc2)c(F)c1 (stereo not shown) | -2.79 |
| COc1ccc(CN(C)CC(=O)Nc2ccc(Cl)cc2C(F)(F)F)c(OC)c1.O=C(O)C(=O)O | 14.6 |
| CCOc1ccccc1C1N(c2ccc(OC)cc2)C(=O)C2CCCN21 (stereo not shown) | 11.4 |
| CCOc1cc(N2CCOCC2)c(OCC)cc1NC(=O)COC(=O)CCc1c[nH]c2ccccc12 | 4.41 |
| COc1cccc(/C=N/NC(=O)C(=O)Nc2ccccc2OC(F)(F)C(F)F)c1 | 10.6 |
| CN(Cc1ccc(Cl)cc1Cl)C(=O)c1cccc(S(=O)(=O)N2CCN(c3ccccc3)CC2)c1 | 11.2 |
| COc1ccc(NC2CCCN(C(=O)CCc3cn[nH]c3)C2)cc1 (stereo not shown) | -4.06 |
| CC(=O)c1ccc(S(=O)(=O)NC(=O)NC2CCCCC2)cc1 | 7.96 |
| CCOc1ccc(OCC)c(NC(=O)CN2CCN(CC)CC2)c1.Cl | -6.91 |
| CCN(CC)S(=O)(=O)c1cccc(NC(=O)CSc2nc3ccccc3[nH]2)c1 | -3.22 |
| N=c1oc2ccccc2cc1-c1nc2ccccc2c(=O)[nH]1 | 13.6 |
| CCCCNC(=O)c1ccc(CS(=O)(=O)c2cccc(C(F)(F)F)c2)o1 | -17 |
| COc1ccccc1Nc1nnc(SCC(=O)N2CCCC2)s1 | -1.93 |
| CC(C)CN(C(=O)COC(=O)C12CC3CC(CC(O)(C3)C1)C2)C1CCS(=O)(=O)C1 (stereo not shown) | 18.7 |
| CCCOc1cccc(C(=O)NC(=S)Nc2ccccc2)c1 | 7.56 |
| Cc1ccn2c(NC3CCCC3)c(-c3ccsc3)nc2c1 | -3.92 |
| COc1cc(C)ccc1OCc1cc(C(=O)N(Cc2nccn2C)C(C)C)no1 | -0.982 |
| Cc1onc(-c2ccccc2Cl)c1C(=O)Nc1nnc(-c2ccc(F)cc2)s1 | -1.34 |
| O=C(Nc1cccc(Br)c1)c1ccc(OC2CSC2)cc1 | 4.63 |
| O=C(NCCc1c[nH]c2ccccc12)C1CCC(Cn2c(=S)[nH]c3ccccc3c2=O)CC1 (stereo not shown) | -1.65 |
| Cc1cc2c(c(SCC(=O)NCCc3ccccc3)n1)C(=O)OC2 | -6.7 |
| CCCn1nc(C(=O)N2CCc3ccccc3C2)c2ccccc2c1=O | 7.02 |

| Compound | hERG current change (%, negative = inhibition) at 1uM [%] |
| --- | --- |
| CC(=O)Nc1ccc(Nc2cc(C)c3ccccc3n2)cc1 | -0.226 |
| COc1cc(OC)cc(C(=O)NC2CCSC2=O)c1 (stereo not shown) | -9.92 |
| CCOC(=O)c1cccc(NC(=O)COc2nsnc2N2CCOCC2)c1 | 9.05 |
| c1ccc(SCc2cn3cccnc3n2)nc1 | 11.5 |
| CC(C)(C)OC(=O)N[C@@H](Cc1ccccc1)c1nnc(SCC(=O)O)o1 | 13.2 |
| CC(=O)NCC1CCCN(Cc2cn(-c3ccccc3)nc2-c2ccc3c(c2)OCO3)C1 (stereo not shown) | 24.2 |
| CCC(C)(C)NC(=O)CN(C(=O)C(=O)Nc1ccc2c(c1)OCCO2)C(C)(C)CC | 8.36 |
| COc1cc(C(=O)OCC(=O)NCc2ccc(F)cc2)cc(NC(=O)c2cccs2)c1OC | 13 |
| C/C(=N\NC(=O)C(N)=O)c1ccc(O)cc1O | 4.57 |
| O=C(N=Nc1c(O)[nH]c2ccc(F)cc12)C1COc2ccccc2O1 (stereo not shown) | 7.6 |
| N#CCCn1cc(C(=O)Nc2ccc([N+](=O)[O-])cc2)c(-c2ccc3c(c2)OCCO3)n1 | -23.1 |
| C=CCOC(=O)C1=C[C@@H](c2csc3ccccc23)[C@H](CCCO)[C@@H](OCC)O1 | 13.3 |
| C=C(C)C1CC=C(CN2CCN(Cc3ccccc3)CC2)CC1 (stereo not shown) | 12.3 |
| O=C1N=C(N2CCN(c3ccccc3)CC2)S/C1=C\c1ccco1 | -17.8 |
| CCn1c(SCC(=O)Nc2cc(C)on2)nc2c(c1=O)SC(C)C2 (stereo not shown) | 7.36 |
| CN(CCNC(=O)c1ccc(/C=N/O)nc1)Cc1ccccc1 | -2.07 |
| COC(=O)C1=C(c2ccc(OC)c(OC)c2)C[C@@H]2CC[C@H]1N2C(=O)N1CCOCC1 | 10.1 |
| CCOC(=O)CC(NC(=O)C(Cc1ccc(N(CCCl)CCCl)cc1)NC(C)=O)C(=O)OCC (stereo not shown) | 11.3 |
| CCOc1ccccc1OCC(=O)Nc1ccc(OC)c(S(=O)(=O)N2CCCCC2)c1 | -0.239 |
| CC(C)CCNC(=O)COC(=O)c1ccc(Br)o1 | 7.35 |
| CC1CC(=O)Nc2ccc([N+](=O)[O-])cc2N1C (stereo not shown) | 15.2 |
| c1cnc2c(c1)ncc1cscc12 | 3.58 |

| Compound | hERG current change (%, negative = inhibition) at 1uM [%] |
| --- | --- |
| CCCCN1C(=O)CC(Sc2ncccc2C(=O)O)C1=O (stereo not shown) | 12.6 |
| O=C(Nc1ccc(-c2noc(CCc3ccccc3)n2)cc1)c1ccco1 | 17.2 |
| Cc1cc(C(=O)OCC(=O)NC(=O)NC(C)(C)C)c(C)o1 | -1.99 |
| Cc1ccc(C(=O)n2nc(-c3ccco3)nc2N)cc1 | 4.19 |
| Cc1ccc(C(=O)Oc2cc(N)n(S(=O)(=O)c3ccc(C)cc3)n2)cc1 | 8.52 |
| CCN(CC)S(=O)(=O)c1ccc(C(=O)OCC(=O)NCCN2C(=O)CSC2=O)cc1 | -2.99 |
| c1cncc(C(c2nnnn2C2CCCC2)N2CCN(Cc3ccc4c(c3)OCO4)CC2)c1 (stereo not shown) | 5.56 |
| COc1cc(/C=C2\C(=O)NN(c3ccccc3)C2=O)ccc1OCC(N)=O | 5.45 |
| COc1ccc(C(=O)NC(=S)Nc2nc(-c3ccc(OC)c(Br)c3)cs2)cc1Br | 18 |
| Cc1ccc(NC(=S)NNC(=O)CCn2cc(C)cn2)cc1 | 3.97 |
| O=C(O)CCCC(=O)Nc1cccc(C(=O)Nc2ccccc2C(=O)O)c1 | 14.6 |
| O=C(CCCNS(=O)(=O)c1ccc(Cl)c(Cl)c1)NCCc1ccccn1 | -5.53 |
| Cc1ccc(C(=O)NCCCNC(=O)c2ccco2)cc1C | 13.3 |
| O=C(/C=C/c1cccs1)NC(=S)Nc1ccccc1 | 6.65 |
| COc1ccc2[nH]c3c(=O)n(CCCCC(=O)N4CCCC4)c(=S)[nH]c3c2c1 | 0.224 |
| C[C@H](NC(=O)c1nc[nH]c1C(=O)N1CCN(c2ccccc2)CC1)c1ccccc1 | 8.47 |
| CC(=O)C12CCCCC1CC1C3CC(C)C4(O)CC(=O)CCC4(C)C3CCC12C (stereo not shown) | 17 |
| O=C1C=C(c2ccc(Cl)nc2)C[C@@H](c2ccc3c(c2)OCO3)C1 | -1.67 |
| COCCCNc1nc2c([nH]1)c(=O)[nH]c(=O)n2C | 6.34 |
| CN(C)c1ccc(C(=O)N=c2sccn2C)cc1[N+](=O)[O-] | 8.01 |
| CCOc1ccc(Nc2nc(Cc3nnc(SCC(=O)c4ccc(C)c(C)c4)o3)cs2)cc1 | 6.96 |
| COc1ccc(CCNC(=O)CN2c3cccc4cccc(c34)S2(=O)=O)cc1OC | 12.9 |
